This is one part of the list. At the low end of the ranking the order means little.

Consider 172 sequences from publication PMC5836133.

The assay concerns T1, GST-NbGlk1(82-244).
T1 sequence: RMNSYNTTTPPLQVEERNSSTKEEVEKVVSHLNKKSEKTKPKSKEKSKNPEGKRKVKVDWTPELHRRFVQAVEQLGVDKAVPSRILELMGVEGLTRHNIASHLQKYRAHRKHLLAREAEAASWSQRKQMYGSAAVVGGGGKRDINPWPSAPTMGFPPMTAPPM
The assay is described as follows: protein-binding microarray.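 Further: rank-based score ranging −0.5 to +0.5 with E above 0.45 taken as significant binding.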 The following applies: NbGlk1 is a Golden2-like transcription factor of Nicotiana benthamiana; high values mean tight binding; most listed sequences are background and not binding sites; double strand, one strand shown.
As for AAGCCTGT, the binding signal was -0.137 E-score.
ACCATTGC had a binding signal of -0.127 E-score.
As for ATGATAGC, the figure is -0.00753 E-score; as for ATTGGGCG, -0.106 E-score.
Sequence AGATTGAC gave a binding signal of 0.0103 E-score.
With AAAAATGA, the binding signal stood at 0.112 E-score.
As for AAGGGGGA, the figure is -0.0894 E-score; as for ATTTCGAG, 0.269 E-score.
In the case of AGGTGCGA, the binding signal was -0.0439 E-score.
AAGTCCAG displayed a binding signal of -0.0936 E-score.
Turning to AGGCGCTC, the binding signal was -0.179 E-score.
AACGGGAT returned a binding signal of 0.121 E-score.
Sequence ATATTTAG returned a binding signal of 0.298 E-score.
Consider ATCCGAGC, for which the binding signal was 0.174 E-score.
Take AGTTTGTG: the binding signal is -0.0786 E-score.
The sequence ACCCCCAG yielded a binding signal of -0.295 E-score.
For CAAGGTGC, the binding signal is -0.282 E-score.
As for ACTAAGGC, the figure is -0.166 E-score; as for CACGAGTG, -0.086 E-score; as for AAGGGCAT, -0.154 E-score.
ACGTGGAC came in with a binding signal of -0.0674 E-score.
As for ATCGTTTG, the figure is 0.00889 E-score; as for AAGCTGAT, 0.0401 E-score.
Consider ATGCTCTC, for which the binding signal was -0.157 E-score.
As for AGTAGGGA, the figure is -0.101 E-score.
The sequence CAAGCAGA gave a binding signal of 0.113 E-score.
AATAGCTC yielded a binding signal of -0.0662 E-score.
In turn, CAGATAGC yielded a binding signal of 0.12 E-score.
On to AATCGTTG, for which the binding signal was 0.203 E-score.
AAAGTCCA: the binding signal was -0.263 E-score.
The figure for ATTATAGC is 0.0652 E-score; for AGGGGACG it is -0.267 E-score.
ATGGGTCA: the binding signal was -0.222 E-score.
AGAGTTAG gave a binding signal of 0.0805 E-score.
Regarding ATTTCGCC, the binding signal is 0.17 E-score.
For the sequence AATGAAGT, the binding signal is -0.0292 E-score.
As to CACAATGC, the binding signal is -0.0659 E-score.
With ACAACGGG, the binding signal was -0.135 E-score.
As for AACCTCTA, the binding signal was -0.179 E-score.
As for ATAGGGTA, the figure is 0.0279 E-score.
Sequence CAGAGGCG had a binding signal of -0.2 E-score.
As for AGCGCCAG, the figure is -0.152 E-score; as for ATCTAAAA, 0.244 E-score; as for AAGCGACT, -0.23 E-score.
With ATTGACTA, the binding signal was -0.0881 E-score.
For ATGGCCTG, the binding signal was -0.0819 E-score.
With AGGATGGC, the binding signal was -0.192 E-score.
ACACTTCG displayed a binding signal of -0.0148 E-score.
On to ATCTTAGA, for which the binding signal was 0.243 E-score.
As for ATATAGTA, the binding signal is 0.15 E-score.
AAGCCCCG displayed a binding signal of -0.248 E-score.
As for ATTGCCGA, the figure is 0.184 E-score; as for ACTATTTC, -0.0196 E-score; as for ACTCCAGC, -0.197 E-score.
The figure for ACTACTTA is 0.0668 E-score; for AATGTATG it is 0.0607 E-score.
Consider AGCAATGA, for which the binding signal was -0.0666 E-score.
In turn, AAACCTCC came in with a binding signal of -0.279 E-score.
The sequence AAAGGAAG had a binding signal of -0.148 E-score.
Take ACGACTAT: the binding signal is -0.042 E-score.
Sequence ATAGCTTG gave a binding signal of 0.0516 E-score.
As for AAATGCTT, the binding signal came to 0.0584 E-score.
On to ACCCAAGA, for which the binding signal worked out at 0.0238 E-score.
As to CAGAGAAA, the binding signal worked out at 0.0998 E-score.
ACGGAAAG yielded a binding signal of -0.131 E-score.
Sequence AATTTTGG showed a binding signal of 0.25 E-score.
As for ACCGGGAT, the figure is 0.178 E-score.
ATATGAAG: the binding signal is 0.207 E-score.
AAGAAAGA had a binding signal of -0.0342 E-score.
As to ACCCGTAA, the binding signal amounted to 0.0729 E-score.
The sequence ACTATCGA registered a binding signal of 0.106 E-score.
As for ACCAGATC, the binding signal is 0.2 E-score.
Sequence AGTTGAAT gave a binding signal of -0.0612 E-score.
Sequence AATGTTCT had a binding signal of -0.0168 E-score.
The figure for AGTACCGC is -0.22 E-score; for AAATTGTT it is 0.114 E-score.
As for ACTCACCG, the figure is -0.137 E-score; as for ACTGATCT, 0.0467 E-score.
The sequence ACTAGACC yielded a binding signal of -0.176 E-score.
In turn, ATTAGCGG registered a binding signal of 0.00925 E-score.
Sequence AGGAGCAG gave a binding signal of -0.254 E-score.
In the case of AAACAGAG, the binding signal is -0.0862 E-score.
On to ACCAGGCC, for which the binding signal was -0.238 E-score.
Sequence AGTTAGAC returned a binding signal of -0.177 E-score.
The figure for AGTTGGCC is -0.182 E-score; for AGATCGGA it is 0.277 E-score; for ACGTATTA it is 0.113 E-score.
Consider AGATTATA, for which the binding signal stood at 0.31 E-score.
Regarding AAGGTGTA, the binding signal is -0.108 E-score.
In turn, AGTACTCC showed a binding signal of -0.125 E-score.
Sequence CAGCCAAC showed a binding signal of -0.23 E-score.
In turn, ACCTAAAA showed a binding signal of 0.0323 E-score.
As for CACTACAG, the figure is -0.149 E-score.
Sequence AGCACTGA had a binding signal of -0.0105 E-score.
ATTGGTAA returned a binding signal of 0.082 E-score.
The sequence AAGTTCAA came in with a binding signal of 0.049 E-score.
ATGCGTCA registered a binding signal of 0.0153 E-score.
In turn, AATGATGT returned a binding signal of 0.0742 E-score.
CAAGGGAC returned a binding signal of -0.238 E-score.
In turn, AATGTGAT yielded a binding signal of 0.0961 E-score.
The figure for ACTCACTC is -0.0834 E-score; for AAAAGAAT it is 0.267 E-score; for ACGGCCAA it is -0.0769 E-score.
With ACTAGGTG, the binding signal was -0.132 E-score.
ACAAACAA: the binding signal came to 0.106 E-score.
Turning to AGGGACAG, the binding signal was -0.281 E-score.
Sequence AGACTAAA gave a binding signal of -0.0428 E-score.
As for ATCTTAAT, the figure is 0.321 E-score; as for ACGAACCA, -0.115 E-score; as for ACCGCGCA, -0.119 E-score.
The figure for ACCACAGC is -0.249 E-score; for ACCCCCCG it is -0.204 E-score; for ACCCGACG it is -0.267 E-score.
As for ATTTGTCA, the figure is 0.186 E-score; as for ACACAAAA, 0.169 E-score; as for AGGTTGTA, -0.0384 E-score.
AACGCGTG displayed a binding signal of -0.132 E-score.
On to AGGTACGC, for which the binding signal was -0.155 E-score.
Consider ACAATTAA, for which the binding signal turned out to be 0.0393 E-score.
The sequence AGCACGCT had a binding signal of -0.229 E-score.
Regarding ATGTGAGA, the binding signal came out at 0.0449 E-score.
AGCTTTTA gave a binding signal of 0.0917 E-score.
ACTCGCGC gave a binding signal of -0.0784 E-score.
With ACGACCGG, the binding signal was -0.0908 E-score.
With AAAGGGTG, the binding signal is -0.24 E-score.
For the sequence AGTGAGAT, the binding signal stood at 0.312 E-score.
As for AAGTGCGG, the figure is -0.0856 E-score; as for AACTCGAC, -0.155 E-score.
Sequence ATACCTTA returned a binding signal of 0.133 E-score.
In turn, AGGACCCA gave a binding signal of -0.207 E-score.
The sequence AACGCCAA came in with a binding signal of -0.147 E-score.
The figure for ATTCATCC is -0.0201 E-score.
As for AACACGTA, the figure is 0.118 E-score.
As for CACCAACG, the figure is -0.276 E-score.
The sequence AACTGTAG gave a binding signal of -0.0415 E-score.
The figure for ATTGAAAA is 0.214 E-score; for ACGTACTC it is -0.101 E-score; for ACTGCAGC it is -0.174 E-score.
In the case of AGGGCTTA, the binding signal is -0.203 E-score.
Take ACGAGTAT: the binding signal came to 0.093 E-score.
Sequence CAACAGAG gave a binding signal of -0.17 E-score.
For the sequence ACGAACTG, the binding signal was -0.0281 E-score.
CAACTCAA returned a binding signal of -0.0821 E-score.
As for AACCGCCC, the figure is -0.181 E-score; as for CACGGTCC, -0.178 E-score; as for ATCGAAAA, 0.176 E-score.
CAGACCAA gave a binding signal of -0.0896 E-score.
AGAAGCGA registered a binding signal of 0.014 E-score.
With ATAGTGGC, the binding signal is -0.111 E-score.
As for ATTGGCGC, the figure is -0.0353 E-score.
AGGCCCGG displayed a binding signal of -0.324 E-score.
The figure for AACGTCTC is -0.166 E-score; for ACTGGGAT it is 0.186 E-score.
For CAGCATGG, the binding signal is -0.0124 E-score.
The sequence ACCAGGCT yielded a binding signal of -0.185 E-score.
On to ACCTCGTG, for which the binding signal is -0.164 E-score.
On to AAAAGGGC, for which the binding signal is -0.178 E-score.
The figure for AGTTCCGG is -0.169 E-score.
For CACCACTG, the binding signal was -0.146 E-score.
In the case of ATCCATCA, the binding signal was 0.189 E-score.
As to AGAAAACG, the binding signal is -0.0994 E-score.
In turn, ACGAGGAC registered a binding signal of -0.248 E-score.
AGGTGCCC: the binding signal is -0.355 E-score.
The figure for ACGAAATC is 0.477 E-score; for AATTAATC it is 0.125 E-score.
As for AGCAACGG, the figure is -0.176 E-score; as for AGATGAGA, 0.0729 E-score.
The sequence AACACCTA showed a binding signal of -0.0524 E-score.
Turning to ATCCGCAT, the binding signal came out at 0.272 E-score.
The sequence ATGTACGG displayed a binding signal of -0.0643 E-score.
For the sequence ATCGCTTC, the binding signal came out at 0.206 E-score.
ACTACCGG: the binding signal is -0.0394 E-score.
